Results on 15 sequences are retold here after the supplement of paper PMC12458215.

± gives the uncertainty stated by the source.

The subject of the first data set is HEK293T. Description: plasma membrane surface immunostaining intensity (anti-HA, deep receptor scanning) (arbitrary fluorescence units); higher = higher plasma membrane expression. Conditions: GPCR class: A.
“MDMLHPSSVSTTSEPENASSAWPPDATLGNVSAGPSPAGLAVSGVLIPLVYLVVCVVGLLGNSLVIYVVLRHTASPSVTNVYILNLALADELFMLGLPFLAAQNALSYWPFGSLMCRLVMAVDGINQFTSIFCLTVMSVDRYLAVVHPTRSARWRTAPVARTVSAAVWVASAVVVLPVVVFSGVPRGMSTCHMQWPEPAAAWRAGFIIYTAALGFFGPLLVICLCYLLIVVKVRSAGRRVWAPSCQRRRRSERRVTRMVVAVVALFVLCWMPFYVLNIVNVVCPLPEEPAFFGLYFLVVALPYANSCANPILYGFLSYRFKQGFRRVLLRPSRRVRSQEPTVGPPEKTEEEDEEEEDGEESREGGKGKEMNGRVSQITQPGTSGQERPPSRVASKEQQLLPQEASTGEKSSTMRISYL [SSTR3]”: the “plasma membrane surface immunostaining intensity” value stood at 6503 ± 49.
Still for that read-out and setting: in the case of “MDPTVPVFGTKLTPINGREETPCYNQTLSFTVLTCIISLVGLTGNAVVLWLLGYRMRRNAVSIYILNLAAADFLFLSFQIIRLPLRLINISHLIRKILVSVMTFPYFTGLSMLSAISTERCLSVLWPIWYRCRRPTHLSAVVCVLLWGLSLLFSMLEWRFCDFLFSGADSSWCETSDFIPVAWLIFLCVVLCVSSLVLLVRILCGSRKMPLTRLYVTILLTVLVFLLCGLPFGILGALIYRMHLNLEVLYCHVYLVCMSLSSLNSSANPIIYFFVGSFRQRQNRQNLKLVLQRALQDKPEVDKGEGQLPEESLELSGSRLGP [MRGPRX4]” it was 690 ± 80; in that of “MDTTMEADLGATGHRPRTELDDEDSYPQGGWDTVFLVALLLLGLPANGLMAWLAGSQARHGAGTRLALLLLSLALSDFLFLAAAAFQILEIRHGGHWPLGTAACRFYYFLWGVSYSSGLFLLAALSLDRCLLALCPHWYPGHRPVRLPLWVCAGVWVLATLFSVPWLVFPEAAVWWYDLVICLDFWDSEELSLRMLEVLGGFLPFLLLLVCHVLTQATACRTCHRQQQPAACRGFARVARTILSAYVVLRLPYQLAQLLYLAFLWDVYSGYLLWEALVYSDYLILLNSCLSPFLCLMASADLRTLLRSVLSSFAAALCEERPGSFTPTEPQTQLDSEGPTLPEPMAEAQSQMDPVAQPQVNPTLQPRSDPTAQPQLNPTAQPQSDPTAQPQLNLMAQPQSDSVAQPQADTNVQTPAPAASSVPSPCDEASPTPSSHPTPGALEDPATPPASEGESPSSTPPEAAPGAGPT [GPR152]”, 284 ± 16.
As to “MEEPGAQCAPPPPAGSETWVPQANLSSAPSQNCSAKDYIYQDSISLPWKVLLVMLLALITLATTLSNAFVIATVYRTRKLHTPANYLIASLAVTDLLVSILVMPISTMYTVTGRWTLGQVVCDFWLSSDITCCTASILHLCVIALDRYWAITDAVEYSAKRTPKRAAVMIALVWVFSISISLPPFFWRQAKAEEEVSECVVNTDHILYTVYSTVGAFYFPTLLLIALYGRIYVEARSRILKQTPNRTGKRLTRAQLITDSPGSTSSVTSINSRVPDVPSESGSPVYVNQVKVRVSDALLEKKKLMAARERKATKTLGIILGAFIVCWLPFFIISLVMPICKDACWFHLAIFDFFTWLGYLNSLINPIIYTMSNEDFKQAFHKLIRFKCTS [HTR1B]”, the “plasma membrane surface immunostaining intensity” value came to 5940 ± 140.
Still for that read-out and setting: to “MEEPQPPRPPASMALLGSQHSGAPSAAGPPGGTSSAATAAVLSFSTVATAALGNLSDASGGGTAAAPGGGGLGGSGAAREAGAAVRRPLGPEAAPLLSHGAAVAAQALVLLLIFLLSSLGNCAVMGVIVKHRQLRTVTNAFILSLSLSDLLTALLCLPAAFLDLFTPPGGSAPAAAAGPWRGFCAASRFFSSCFGIVSTLSVALISLDRYCAIVRPPREKIGRRRALQLLAGAWLTALGFSLPWELLGAPRELAAAQSFHGCLYRTSPDPAQLGAAFSVGLVVACYLLPFLLMCFCHYHICKTVRLSDVRVRPVNTYARVLRFFSEVRTATTVLIMIVFVICCWGPYCFLVLLAAARQAQTMQAPSLLSVVAVWLTWANGAINPVIYAIRNPNISMLLGRNREEGYRTRNVDAFLPSQGPGLQARSRSRLRNRYANRLGACNRMSSSNPASGVAGDVAMWARKNPVVLFCREGPPEPVTAVTKQPKSEAGDTSL [GPR135]” belongs 198 ± 14; to “MEGEPSQPPNSSWPLSQNGTNTEATPATNLTFSSYYQHTSPVAAMFIVAYALIFLLCMVGNTLVCFIVLKNRHMHTVTNMFILNLAVSDLLVGIFCMPTTLVDNLITGWPFDNATCKMSGLVQGMSVSASVFTLVAIAVERFRCIVHPFREKLTLRKALVTIAVIWALALLIMCPSAVTLTVTREEHHFMVDARNRSYPLYSCWEAWPEKGMRRVYTTVLFSHIYLAPLALIVVMYARIARKLCQAPGPAPGGEEAADPRASRRRARVVHMLVMVALFFTLSWLPLWALLLLIDYGQLSAPQLHLVTVYAFPFAHWLAFFNSSANPIIYGYFNENFRRGFQAAFRARLCPRPSGSHKEAYSERPGGLLHRRVFVVVRPSDSGLPSESGPSSGAPRPGRLPLRNGRVAHHGLPREGPGCSHLPLTIPAWDI [NPFFR1]”, 784 ± 25.
The same measure, in the same setting: in the case of “MELHNLSSPSPSLSSSVLPPSFSPSPSSAPSAFTTVGGSSGGPCHPTSSSLVSAFLAPILALEFVLGLVGNSLALFIFCIHTRPWTSNTVFLVSLVAADFLLISNLPLRVDYYLLHETWRFGAAACKVNLFMLSTNRTASVVFLTAIALNRYLKVVQPHHVLSRASVGAAARVAGGLWVGILLLNGHLLLSTFSGPSCLSYRVGTKPSASLRWHQALYLLEFFLPLALILFAIVSIGLTIRNRGLGGQAGPQRAMRVLAMVVAVYTICFLPSIIFGMASMVAFWLSACRSLDLCTQLFHGSLAFTYLNSVLDPVLYCFSSPNFLHQSRALLGLTRGRQGPVSDESSYQPSRQWRYREASRKAEAIGKLKVQGEVSLEKEGSSQG [OXER1]” it was 5610 ± 69.
On the same count and under the same terms, in the case of “MEPHDSSHMDSEFRYTLFPIVYSIIFVLGVIANGYVLWVFARLYPCKKFNEIKIFMVNLTMADMLFLITLPLWIVYYQNQGNWILPKFLCNVAGCLFFINTYCSVAFLGVITYNRFQAVTRPIKTAQANTRKRGISLSLVIWVAIVGAASYFLILDSTNTVPDSAGSGNVTRCFEHYEKGSVPVLIIHIFIVFSFFLVFLIILFCNLVIIRTLLMQPVQQQRNAEVKRRALWMVCTVLAVFIICFVPHHVVQLPWTLAELGFQDSKFHQAINDAHQVTLCLLSTNCVLDPVIYCFLTKKFRKHLTEKFYSMRSSRKCSRATTDTVTEVVVPFNQIPGNSLKN [PTAFR]” it was 5500 ± 180; in that of “MEPLFPASTPSWNASSPGAASGGGDNRTLVGPAPSAGARAVLVPVLYLLVCAAGLGGNTLVIYVVLRFAKMKTVTNIYILNLAVADVLYMLGLPFLATQNAASFWPFGPVLCRLVMTLDGVNQFTSVFCLTVMSVDRYLAVVHPLSSARWRRPRVAKLASAAAWVLSLCMSLPLLVFADVQEGGTCNASWPEPVGLWGAVFIIYTAVLGFFAPLLVICLCYLLIVVKVRAAGVRVGCVRRRSERKVTRMVLVVVLVFAGCWLPFFTVNIVNLAVALPQEPASAGLYFFVVILSYANSCANPVLYGFLSDNFRQSFQKVLCLRKGSGAKDADATEPRPDRIRQQQEATPPAHRAAANGLMQTSKL [SSTR5]”, 5420 ± 190; in that of “MERAPPDGPLNASGALAGEAAAAGGARGFSAAWTAVLAALMALLIVATVLGNALVMLAFVADSSLRTQNNFFLLNLAISDFLVGAFCIPLYVPYVLTGRWTFGRGLCKLWLVVDYLLCTSSAFNIVLISYDRFLSVTRAVSYRAQQGDTRRAVRKMLLVWVLAFLLYGPAILSWEYLSGGSSIPEGHCYAEFFYNWYFLITASTLEFFTPFLSVTFFNLSIYLNIQRRTRLRLDGAREAAGPEPPPEAQPSPPPPPGCWGCWQKGHGEAMPLHRYGVGEAAVGAEAGEATLGGGGGGGSVASPTSSSGSSSRGTERPRSLKRGSKPSASSASLEKRMKMVSQSFTQRFRLSRDRKVAKSLAVIVSIFGLCWAPYTLLMIIRAACHGHCVPDYWYETSFWLLWANSAVNPVLYPLCHHSFRRAFTKLLCPQKLKIQPHSSLEHCWK [HRH3]”, 462 ± 29.
Consider “METSSPRPPRPSSNPGLSLDARLGVDTRLWAKVLFTALYALIWALGAAGNALSAHVVLKARAGRAGRLRHHVLSLALAGLLLLLVGVPVELYSFVWFHYPWVFGDLGCRGYYFVHELCAYATVLSVAGLSAERCLAVCQPLRARSLLTPRRTRWLVALSWAASLGLALPMAVIMGQKHELETADGEPEPASRVCTVLVSRTALQVFIQVNVLVSFVLPLALTAFLNGVTVSHLLALCSQVPSTSTPGSSTPSRLELLSEEGLLSFIVWKKTFIQGGQVSLVRHKDVRRIRSLQRSVQVLRAIVVMYVICWLPYHARRLMYCYVPDDAWTDPLYNFYHYFYMVTNTLFYVSSAVTPLLYNAVSSSFRKLFLEAVSSLCGEHHPMKRLPPKPQSPTLMDTASGFGDPPETRT [NTSR2]”, for which the “plasma membrane surface immunostaining intensity” value came to 790 ± 300.
Same read-out and setting: to “MEWDNGTGQALGLPPTTCVYRENFKQLLLPPVYSAVLAAGLPLNICVITQICTSRRALTRTAVYTLNLALADLLYACSLPLLIYNYAQGDHWPFGDFACRLVRFLFYANLHGSILFLTCISFQRYLGICHPLAPWHKRGGRRAAWLVCVAVWLAVTTQCLPTAIFAATGIQRNRTVCYDLSPPALATHYMPYGMALTVIGFLLPFAALLACYCLLACRLCRQDGPAEPVAQERRGKAARMAVVVAAAFAISFLPFHITKTAYLAVRSTPGVPCTVLEAFAAAYKGTRPFASANSVLDPILFYFTQKKFRRRPHELLQKLTAKWQRQGR [P2RY6]” belongs 2480 ± 530; to “MFPNGTASSPSSSPSPSPGSCGEGGGSRGPGAGAADGMEEPGRNASQNGTLSEGQGSAILISFIYSVVCLVGLCGNSMVIYVILRYAKMKTATNIYILNLAIADELLMLSVPFLVTSTLLRHWPFGALLCRLVLSVDAVNMFTSIYCLTVLSVDRYVAVVHPIKAARYRRPTVAKVVNLGVWVLSLLVILPIVVFSRTAANSDGTVACNMLMPEPAQRWLVGFVLYTFLMGFLLPVGAICLCYVLIIAKMRMVALKAGWQQRKRSERKITLMVMMVVMVFVICWMPFYVVQLVNVFAEQDDATVSQLSVILGYANSCANPILYGFLSDNFKRSFQRILCLSWMDNAAEEPVDYYATALKSRAYSVEDFQPENLESGGVFRNGTCTSRITTL [SSTR1]”, 803 ± 25.
In the case of “MGDELAPCPVGTTAWPALIQLISKTPCMPQAASNTSLGLGDLRVPSSMLYWLFLPSSLLAAATLAVSPLLLVTILRNQRLRQEPHYLLPANILLSDLAYILLHMLISSSSLGGWELGRMACGILTDAVFAACTSTILSFTAIVLHTYLAVIHPLRYLSFMSHGAAWKAVALIWLVACCFPTFLIWLSKWQDAQLEEQGASYILPPSMGTQPGCGLLVIVTYTSILCVLFLCTALIANCFWRIYAEAKTSGIWGQGYSRARGTLLIHSVLITLYVSTGVVFSLDMVLTRYHHIDSGTHTWLLAANSEVLMMLPRAMLTYLYLLRYRQLLGMVRGHLPSRRHQAIFTIS [GPR148]”, the “plasma membrane surface immunostaining intensity” value stood at 219 ± 21.

The same data set, now with this note: GPCR class: C.
“MFVASERKMRAHQVLTFLLLFVITSVASENASTSRGCGLDLLPQYVSLCDLDAIWGIVVEAVAGAGALITLLLMLILLVRLPFIKEKEKKSPVGLHFLFLLGTLGLFGLTFAFIIQEDETICSVRRFLWGVLFALCFSCLLSQAWRVRRLVRHGTGPAGWQLVGLALCLMLVQVIIAVEWLVLTVLRDTRPACAYEPMDFVMALIYDMVLLVVTLGLALFTLCGKFKRWKLNGAFLLITAFLSVLIWVAWMTMYLFGNVKLQQGDAWNDPTLAITLAASGWVFVIFHAIPEIHCTLLPALQENTPNYFDTSQPRMRETAFEEDVQLPRAYMENKAFSMDEHNAALRTAGFPNGSLGKRPSGSLGKRPSAPFRSNVYQPTEMAVVLNGGTIPTAPPSHTGRHLW [GPRC5B]”: the “plasma membrane surface immunostaining intensity” value was determined as 6190 ± 84.
